From PMC12480466
No constants are given. Whether binding was seen depends on the method and setting. Binding seen in cells or lysates may run through a third protein. Some binding calls cover weakened binding; strength is not graded here. Where a sequence is shown, tags or fusion partners need not be part of it.

Chains of the proteins cited; added tags and fusions are not shown. Lines headed by an entry give the natural chain unless they say otherwise; changes in a name come on top. Residues count along the entry.
UniProt Q8TEP8: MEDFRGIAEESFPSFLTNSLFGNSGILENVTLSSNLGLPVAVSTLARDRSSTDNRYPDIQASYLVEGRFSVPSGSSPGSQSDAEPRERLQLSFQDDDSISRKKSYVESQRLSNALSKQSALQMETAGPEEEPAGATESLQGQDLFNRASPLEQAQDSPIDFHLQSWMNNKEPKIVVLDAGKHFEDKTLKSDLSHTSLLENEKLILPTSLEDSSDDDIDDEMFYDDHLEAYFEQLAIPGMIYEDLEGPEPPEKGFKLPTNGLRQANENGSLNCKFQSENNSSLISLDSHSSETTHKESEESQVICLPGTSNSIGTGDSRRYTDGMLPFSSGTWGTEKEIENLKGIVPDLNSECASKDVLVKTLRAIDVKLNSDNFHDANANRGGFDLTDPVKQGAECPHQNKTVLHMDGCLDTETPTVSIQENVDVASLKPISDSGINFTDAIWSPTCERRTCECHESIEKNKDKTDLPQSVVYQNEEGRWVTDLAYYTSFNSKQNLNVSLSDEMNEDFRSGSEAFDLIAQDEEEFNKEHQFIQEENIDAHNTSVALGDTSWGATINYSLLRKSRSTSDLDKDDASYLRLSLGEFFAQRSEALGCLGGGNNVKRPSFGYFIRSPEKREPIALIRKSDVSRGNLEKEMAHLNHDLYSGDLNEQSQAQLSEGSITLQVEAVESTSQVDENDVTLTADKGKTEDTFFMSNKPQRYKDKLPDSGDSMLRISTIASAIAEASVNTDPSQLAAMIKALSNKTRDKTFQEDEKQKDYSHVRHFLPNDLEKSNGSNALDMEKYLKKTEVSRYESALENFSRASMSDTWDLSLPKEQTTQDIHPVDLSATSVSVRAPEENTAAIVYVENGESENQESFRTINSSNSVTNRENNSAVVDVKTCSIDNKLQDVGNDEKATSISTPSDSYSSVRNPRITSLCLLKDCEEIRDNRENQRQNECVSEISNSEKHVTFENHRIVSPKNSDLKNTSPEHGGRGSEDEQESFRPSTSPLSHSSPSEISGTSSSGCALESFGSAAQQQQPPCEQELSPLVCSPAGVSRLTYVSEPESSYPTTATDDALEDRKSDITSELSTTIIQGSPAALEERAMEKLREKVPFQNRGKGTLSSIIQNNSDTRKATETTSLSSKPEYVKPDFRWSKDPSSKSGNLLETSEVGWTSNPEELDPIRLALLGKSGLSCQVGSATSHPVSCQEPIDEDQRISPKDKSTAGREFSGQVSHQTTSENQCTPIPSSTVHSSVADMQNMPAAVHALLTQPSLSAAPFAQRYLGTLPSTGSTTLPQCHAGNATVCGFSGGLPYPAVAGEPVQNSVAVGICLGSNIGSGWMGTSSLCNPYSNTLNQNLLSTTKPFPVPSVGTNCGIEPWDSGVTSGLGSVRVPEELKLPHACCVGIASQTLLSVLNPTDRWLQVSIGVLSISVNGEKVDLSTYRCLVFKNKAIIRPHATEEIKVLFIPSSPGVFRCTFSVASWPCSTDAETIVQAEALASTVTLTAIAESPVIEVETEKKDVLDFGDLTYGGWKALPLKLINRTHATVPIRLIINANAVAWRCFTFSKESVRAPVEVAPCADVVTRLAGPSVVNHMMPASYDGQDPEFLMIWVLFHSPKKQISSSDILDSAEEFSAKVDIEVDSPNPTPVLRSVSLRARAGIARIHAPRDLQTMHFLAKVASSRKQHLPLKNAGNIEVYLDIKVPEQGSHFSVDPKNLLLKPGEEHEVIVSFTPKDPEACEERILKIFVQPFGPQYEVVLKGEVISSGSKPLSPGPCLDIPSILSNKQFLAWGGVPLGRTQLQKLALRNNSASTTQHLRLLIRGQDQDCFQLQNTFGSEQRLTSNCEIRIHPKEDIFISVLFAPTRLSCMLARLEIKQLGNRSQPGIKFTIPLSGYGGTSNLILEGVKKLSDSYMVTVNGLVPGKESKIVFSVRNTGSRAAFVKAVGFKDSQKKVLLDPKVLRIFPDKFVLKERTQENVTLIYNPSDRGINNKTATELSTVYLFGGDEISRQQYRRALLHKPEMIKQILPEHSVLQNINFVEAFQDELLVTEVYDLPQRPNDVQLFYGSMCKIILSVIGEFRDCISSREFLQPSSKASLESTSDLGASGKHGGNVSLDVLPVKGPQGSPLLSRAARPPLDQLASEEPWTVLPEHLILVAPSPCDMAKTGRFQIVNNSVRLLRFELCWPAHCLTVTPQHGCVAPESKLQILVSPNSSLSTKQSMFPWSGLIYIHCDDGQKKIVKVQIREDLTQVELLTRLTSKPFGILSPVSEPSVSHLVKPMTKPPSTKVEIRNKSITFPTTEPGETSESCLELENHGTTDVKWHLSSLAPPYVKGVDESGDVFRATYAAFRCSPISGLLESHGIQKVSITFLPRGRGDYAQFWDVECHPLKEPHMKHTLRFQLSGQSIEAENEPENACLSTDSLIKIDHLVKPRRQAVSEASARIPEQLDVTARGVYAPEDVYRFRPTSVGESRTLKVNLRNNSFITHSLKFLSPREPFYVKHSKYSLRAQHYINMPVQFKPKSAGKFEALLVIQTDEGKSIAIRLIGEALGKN
UniProt Q9BV73: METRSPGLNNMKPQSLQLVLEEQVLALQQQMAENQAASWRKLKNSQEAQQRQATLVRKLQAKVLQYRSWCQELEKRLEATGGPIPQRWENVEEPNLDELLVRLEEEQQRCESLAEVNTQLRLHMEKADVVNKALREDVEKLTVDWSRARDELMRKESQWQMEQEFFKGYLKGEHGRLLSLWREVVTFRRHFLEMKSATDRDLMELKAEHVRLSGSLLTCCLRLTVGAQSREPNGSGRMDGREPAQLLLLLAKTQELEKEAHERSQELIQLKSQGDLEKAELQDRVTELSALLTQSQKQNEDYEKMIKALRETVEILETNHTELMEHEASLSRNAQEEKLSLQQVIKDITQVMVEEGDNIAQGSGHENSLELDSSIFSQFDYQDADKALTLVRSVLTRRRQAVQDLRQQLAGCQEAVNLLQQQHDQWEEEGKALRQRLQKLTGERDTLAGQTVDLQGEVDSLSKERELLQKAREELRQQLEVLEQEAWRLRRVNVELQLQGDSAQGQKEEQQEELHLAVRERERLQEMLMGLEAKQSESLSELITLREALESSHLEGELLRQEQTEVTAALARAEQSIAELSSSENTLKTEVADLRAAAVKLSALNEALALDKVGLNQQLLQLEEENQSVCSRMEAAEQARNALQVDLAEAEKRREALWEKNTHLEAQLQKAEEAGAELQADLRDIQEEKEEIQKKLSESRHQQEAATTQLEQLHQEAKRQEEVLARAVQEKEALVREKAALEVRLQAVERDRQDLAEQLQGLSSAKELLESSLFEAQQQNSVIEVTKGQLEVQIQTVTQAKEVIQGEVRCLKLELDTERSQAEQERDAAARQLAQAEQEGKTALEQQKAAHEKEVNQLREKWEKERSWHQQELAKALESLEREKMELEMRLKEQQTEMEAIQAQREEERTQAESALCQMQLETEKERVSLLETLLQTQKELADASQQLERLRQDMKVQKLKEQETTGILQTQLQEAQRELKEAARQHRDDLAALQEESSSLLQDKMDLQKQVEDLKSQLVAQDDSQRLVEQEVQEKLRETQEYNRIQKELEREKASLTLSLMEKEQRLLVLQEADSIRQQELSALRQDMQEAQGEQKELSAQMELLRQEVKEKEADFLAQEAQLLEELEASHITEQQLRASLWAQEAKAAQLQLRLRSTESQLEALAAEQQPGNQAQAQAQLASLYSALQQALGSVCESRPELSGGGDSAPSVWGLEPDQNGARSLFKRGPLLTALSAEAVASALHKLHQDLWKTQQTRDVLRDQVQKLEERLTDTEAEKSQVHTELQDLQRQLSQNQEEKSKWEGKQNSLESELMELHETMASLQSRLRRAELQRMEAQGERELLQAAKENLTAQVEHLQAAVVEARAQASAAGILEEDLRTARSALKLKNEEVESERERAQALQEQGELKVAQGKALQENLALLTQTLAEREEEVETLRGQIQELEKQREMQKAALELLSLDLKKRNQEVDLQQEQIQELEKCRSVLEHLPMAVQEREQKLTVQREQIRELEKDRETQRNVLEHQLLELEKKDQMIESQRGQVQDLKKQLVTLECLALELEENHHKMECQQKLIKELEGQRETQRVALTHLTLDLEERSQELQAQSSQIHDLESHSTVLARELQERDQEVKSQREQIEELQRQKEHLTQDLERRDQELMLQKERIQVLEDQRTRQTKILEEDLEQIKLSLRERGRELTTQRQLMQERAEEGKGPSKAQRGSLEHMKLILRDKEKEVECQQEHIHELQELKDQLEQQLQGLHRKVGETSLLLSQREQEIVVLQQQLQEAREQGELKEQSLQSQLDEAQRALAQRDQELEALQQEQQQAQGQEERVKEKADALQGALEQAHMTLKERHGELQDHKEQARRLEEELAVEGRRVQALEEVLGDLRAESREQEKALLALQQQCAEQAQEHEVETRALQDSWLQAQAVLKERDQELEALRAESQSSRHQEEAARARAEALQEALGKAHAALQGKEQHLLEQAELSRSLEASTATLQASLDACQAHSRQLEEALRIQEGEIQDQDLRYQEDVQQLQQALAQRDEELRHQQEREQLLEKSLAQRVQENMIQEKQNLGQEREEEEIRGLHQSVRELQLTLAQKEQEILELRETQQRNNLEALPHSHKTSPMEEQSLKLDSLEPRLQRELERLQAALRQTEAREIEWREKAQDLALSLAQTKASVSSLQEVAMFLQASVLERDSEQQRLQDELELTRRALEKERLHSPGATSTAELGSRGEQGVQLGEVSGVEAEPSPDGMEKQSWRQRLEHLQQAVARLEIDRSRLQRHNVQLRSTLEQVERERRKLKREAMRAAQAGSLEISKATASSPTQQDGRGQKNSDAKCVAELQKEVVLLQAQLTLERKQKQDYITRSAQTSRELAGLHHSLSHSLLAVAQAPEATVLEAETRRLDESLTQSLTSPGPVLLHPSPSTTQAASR
UniProt P53350: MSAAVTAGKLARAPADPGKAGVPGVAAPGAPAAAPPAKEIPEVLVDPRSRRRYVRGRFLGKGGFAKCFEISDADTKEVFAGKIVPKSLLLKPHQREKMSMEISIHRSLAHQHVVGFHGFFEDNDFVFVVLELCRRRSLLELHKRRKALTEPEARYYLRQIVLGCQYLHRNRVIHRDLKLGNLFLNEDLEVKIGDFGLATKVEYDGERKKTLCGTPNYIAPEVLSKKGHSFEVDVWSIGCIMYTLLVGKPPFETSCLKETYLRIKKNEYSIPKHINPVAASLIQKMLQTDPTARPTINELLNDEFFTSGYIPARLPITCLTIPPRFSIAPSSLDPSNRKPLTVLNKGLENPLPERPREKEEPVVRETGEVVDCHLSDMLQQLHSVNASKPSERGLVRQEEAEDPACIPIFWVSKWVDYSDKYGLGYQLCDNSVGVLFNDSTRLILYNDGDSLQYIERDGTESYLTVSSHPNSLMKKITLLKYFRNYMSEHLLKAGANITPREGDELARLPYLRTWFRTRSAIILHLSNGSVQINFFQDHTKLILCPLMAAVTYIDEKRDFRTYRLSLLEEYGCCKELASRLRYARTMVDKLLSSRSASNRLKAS
GFP-PLK1 C-terminus (311–603 aa): residues 311-603 of P53350

Experiments:
[1] = target: Cep192 (endogenous, HEK293T) (human (endogenous in HEK293T)) (UniProt Q8TEP8); assay: co-IP; lysates of HEK293T cells overexpressing 3×FLAG-TUFT1 only; partners blotted with their own antibodies; lysis buffer 150 mM NaCl, 50 mM HEPES, 1 mM MgCl2, 1 mM EGTA, 0.5% Triton X-100, pH 7.4; protein G-Sepharose, 4 °C
[2] = target: T1, PLK4 (endogenous, HEK293T) (human (endogenous in HEK293T)) (UniProt O00444); assay: as above
T1 sequence: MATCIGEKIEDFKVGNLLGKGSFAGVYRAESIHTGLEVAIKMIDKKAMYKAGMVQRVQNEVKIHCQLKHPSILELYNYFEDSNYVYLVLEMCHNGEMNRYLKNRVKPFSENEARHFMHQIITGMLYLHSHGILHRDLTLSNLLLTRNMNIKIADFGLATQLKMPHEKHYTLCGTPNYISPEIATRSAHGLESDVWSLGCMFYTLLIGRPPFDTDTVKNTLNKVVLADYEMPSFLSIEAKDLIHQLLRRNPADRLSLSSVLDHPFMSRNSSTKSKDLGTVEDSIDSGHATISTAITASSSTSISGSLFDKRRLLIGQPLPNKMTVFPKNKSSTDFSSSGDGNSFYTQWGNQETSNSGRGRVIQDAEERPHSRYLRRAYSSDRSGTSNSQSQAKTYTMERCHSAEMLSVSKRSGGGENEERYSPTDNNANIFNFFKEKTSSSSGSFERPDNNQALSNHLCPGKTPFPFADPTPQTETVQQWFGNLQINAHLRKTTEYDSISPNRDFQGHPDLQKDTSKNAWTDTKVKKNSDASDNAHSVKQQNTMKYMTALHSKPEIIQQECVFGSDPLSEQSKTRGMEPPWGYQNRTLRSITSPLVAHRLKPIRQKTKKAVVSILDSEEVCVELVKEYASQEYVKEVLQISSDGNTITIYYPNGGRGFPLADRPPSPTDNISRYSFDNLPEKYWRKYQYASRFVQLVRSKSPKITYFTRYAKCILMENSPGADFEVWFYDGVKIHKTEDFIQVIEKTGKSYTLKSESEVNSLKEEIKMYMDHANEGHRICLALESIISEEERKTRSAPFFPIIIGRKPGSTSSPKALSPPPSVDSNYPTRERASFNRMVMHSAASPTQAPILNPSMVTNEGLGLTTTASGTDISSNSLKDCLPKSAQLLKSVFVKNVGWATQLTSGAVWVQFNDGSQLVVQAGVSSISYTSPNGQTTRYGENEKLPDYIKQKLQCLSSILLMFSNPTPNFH

C-Nap1-GFP (human) = C-Nap1-GFP (human) (UniProt Q9BV73); assay: co-IP; lysates of HEK293T cells overexpressing both tagged proteins; lysis buffer 150 mM NaCl, 50 mM HEPES, 1 mM MgCl2, 1 mM EGTA, 0.5% Triton X-100, pH 7.4; antibodies and protein G-Sepharose, 4 °C, 4 h or overnight; immunoblotting
GFP-PLK1 (FL) (human) = GFP-PLK1 (FL) (human) (UniProt P53350); assay: as above
[3] = target: GFP-PLK1 C-terminus (311–603 aa) (human) (UniProt P53350); assay: as above

B1: 3×FLAG-TUFT1 (full-length, FL; WT) (protein, UniProt Q9NNX1-1 1-390)
chain: MNGTRNWCTLVDVHPEDQAAGSVDILRLTLQGELTGDELEHIAQKAGRKTYAMVSSHSAGHSLASELVESHDGHEEIIKVYLKGRSGDKMIHEKNINQLKSEVQYIQEARNCLQKLREDISSKLDRNLGDSLHRQEIQVVLEKPNGFSQSPTALYSSPPEVDTCINEDVESLRKTVQDLLAKLQEAKRQHQSDCVAFEVTLSRYQREAEQSNVALQREEDRVEQKEAEVGELQRRLLGMETEHQALLAKVREGEVALEELRSNNADCQAEREKAATLEKEVAGLREKIHHLDDMLKSQQRKVRQMIEQLQNSKAVIQSKDATIQELKEKIAYLEAENLEMHDRMEHLIEKQISHGNFSTQARAKTENPGSIRISKPPSPKPMPVIRVVET
Question: What does the source list for B1?
Answer: binding [1]: no binding; binding [2]: no binding; binding (C-Nap1-GFP (human)): binds; binding (GFP-PLK1 (FL) (human)): binds; binding [3]: binds
